Laboratory results reported in PubChem BioAssay AID602332 (National Center for Advancing Translational Sciences (NCATS), 2012).
Out of some 420,000 compounds screened, about 75 (0.02%) were called active. This list was built around the results that the source calls inconclusive (neither active nor inactive); the mix of calls is not that of the screen. Calls follow the shape of the dose curve; as a rule, active = well fitted activation curve with a large enough effect; inconclusive = small, poorly fitted or top-dose-only effect; inactive = no such curve, though single readings can be large or run the other way. Potencies of inconclusive entries are doubtful fits and often do not repeat.

assay: qHTS for Inducers of the Endoplasmic Reticulum Stress Response (ERSR) in Human Glioma: qHTS; conditions: U87-MG GRP78 promoter luciferase reporter, 16 h; activation: hits give high values; also: nearly all actives have a fitted effect of over 35% in size; as to activation: % of control where 0% means no effect
From the text: Primary protein unfolding takes place for many diseases, including diabetes and hypoxia, , and triggers a reaction in the cells called ER stress response (ERSR). ). ERSR is designed as a repair mechanism, but ultimately leads to cell death via apoptosis if conditions triggering protein unfolding persist (1). The molecular clue to ERSR activation is the enhancement of the expression of key molecular chaperones, including the glucose regulated protein (GRP) 78. GRP78 is the main sensor for protein folding and the main actuator of the ERSR.
In a collaboration between the Southern Research Institute and the NIH Chemical Genomics Center, a cell based screen was developed that reliably uses GRP78 as a sensor to identify small molecules as inducers of ERSR. In resting conditions, GRP78 binds proteins and acts as a natural repressor. Once unfolded proteins are present in the ER, GRP78 releases some of the repressors and binds to the unfolded proteins. The release of the repressors executes the ERSR program. Using a human glioma cell line in a miniaturized, luminescent format, a high-throughput screen was developed to identify actuators of the ERSR.
(1) Soboloff, J. and S. A. Berger (2002). "Sustained ER Ca2+ depletion suppresses protein synthesis and induces activation-enhanced cell death in mast cells." J Biol Chem 277(16): 13812-20.
NIH Chemical Genomics Center [NCGC]
NIH Molecular Libraries Probe Centers Network [MLPCN]
Assay Submitter (PI): Maurizio Grimaldi, Southern Research Institute
Stable transfected human glioma cell line, U87-MG, are dispensed at density 1000 cells/well into Greiner white solid bottom 1536-well assay plates. Compounds are transferred via Kalypsys pin tool equipped with 1536-pin array (10nl slotted pins, V&P Scientific, San Diego, CA). The assay plates will be incubated for 16 hours and developed by adding appropriate quantities of the Promega Bright Glo reagent. The plates will be incubated at room temperature for 10 minutes prior to being transferred into a ViewLux high-throughput CCD imager (PerkinElmer), wherein end-point measurements of luminescence are acquired.
Potency is read from the fitted curve at half-maximal effect; tags tell the direction and shape of the fitted curve.

SMILES | activation | Potency
COc1cccc(-n2c(=O)c3ccccc3n3c(=S)[nH]nc23)c1 | inactive: -4.65% | –
Cc1ccc(C(=O)Nc2ccc(NC(=O)c3cccs3)cc2)cc1C | – | inconclusive: 28.2 µM [activator, single point]
O=C(N/N=C/C(Br)=C/c1ccccc1)c1ccccc1F | inactive: -7.41% | –
COc1cccc(NC(=O)N2CCC(NC(=O)C(Cc3cccc(C)c3)NC(C)=O)CC2)c1 (stereo unspecified) | – | inconclusive: 2.24 µM [activator, full curve, poor fit]
O=C(Nc1ccccc1C(=O)N/N=C/c1ccccc1)c1ccco1 | – | inconclusive: 12.6 µM [activator, full curve, poor fit]
CN(C)C(=O)c1cccc(-c2csc(N3CCC(C(N)=O)CC3)n2)c1 | inactive: -0.571% | –
O=c1ccc2cc(O)c(O)cc2o1 | – | inconclusive: 50.1 µM [activator, single point]
Cc1nn(C)c(C)c1CS(=O)(=O)c1ccccc1 | inactive: -0.977% | –
Nc1nn(-c2cccc(F)n2)cc1-c1ccc(Cl)cc1 | inactive: -2.05% | –
CN(CC(=O)Nc1ccc(Cl)c(Cl)c1)CC(=O)N1CCCCCC1 | inactive: -5.4% | –
O=C(O)CSc1nc2sc3c(c2c(=O)n1Cc1ccccc1)CCCCC3 | – | inconclusive: 70.8 µM [activator, single point]
CC(/C=C/c1ccco1)=N/NC(=O)CNc1ccccc1C | inactive: -1.1% | –
CCN(CC)c1ccc(/C=N/Nc2nc3ccccc3[nH]2)c(O)c1 | inactive: -6.18% | –
Cc1onc(-c2ccccc2)c1C(=O)NNC(=S)NC(=O)c1ccc(Cl)cc1Cl | – | inconclusive: 50.1 µM [activator, single point]
COc1ccc2nc(NC(=O)c3ccc([N+](=O)[O-])o3)sc2c1 | – | inconclusive: 6.31 µM [activator, partial curve, poor fit]
CC1CC=CC2C1C(=O)N(Cc1ccccc1)C2c1ccc2ccccc2c1 (stereo unspecified) | – | inconclusive: 28.2 µM [activator, single point]
CCc1ccc(NC(=O)C(=O)NNC(=O)c2cccc(OC)c2)cc1 | – | inconclusive: 44.7 µM [activator, partial curve, poor fit]
CC1=C(C(=O)Nc2ccccc2)C(c2ccc(Cl)cc2)n2c(s/c(=C/c3cccc(OCC(=O)O)c3)c2=O)=N1 (stereo unspecified) | – | inconclusive: 63.1 µM [activator, single point]
S=C(NCCc1ccccc1)Nc1ccc(Cl)cc1 | inactive: 0.862% | –
CC(=O)Oc1ccc(C#C/C=C2\c3ccccc3C(=O)N2c2ccccc2)cc1 | – | inconclusive: 44.7 µM [activator, partial curve, poor fit]
O=C(O)c1ccc(N/N=C/c2c(F)cccc2Cl)cc1 | inactive: -17.3% | –
COc1ccccc1-c1c(C)nn2c(N)c(-c3ccccc3)cnc12 | – | inconclusive: 50.1 µM [activator, single point]
COc1ccccc1Cc1c(-c2ccc(C)cc2)nc2c(C)cc(Br)cn12 | – | inconclusive: 39.8 µM [activator, partial curve, poor fit]

SMILES | activation | Potency
COc1cc(C(=O)N(Cc2cc3ccc(C)cc3nc2N(C)C)C2CC2)cc(OC)c1OC | – | inconclusive: 11.2 µM [activator, partial curve, poor fit]
Oc1ccc(/C=N/Nc2ccc(C(F)(F)F)cn2)cc1O | – | inconclusive: 7.94 µM [activator, full curve, poor fit]
O=C(Nc1nc(-c2ccccn2)cs1)c1cc2ccccc2o1 | – | inconclusive: 10 µM [activator, full curve, poor fit]
O=S(=O)(NCC1CCCO1)c1ccccc1 (stereo unspecified) | inactive: -2.08% | –
CCCNC(=O)C(Cc1ccc(Cl)cc1)NC(=O)c1ccc(-c2ccccc2)cc1 (stereo unspecified) | – | inconclusive: 44.7 µM [activator, partial curve, poor fit]
Brc1ccc2nc(-c3ccco3)c(Cc3ccccc3)n2c1 | inactive: 9.22% | –
O=C(CSc1nc2ccccc2c(=O)n1CC1CCCO1)NCc1ccc2c(c1)OCO2 (stereo unspecified) | – | inconclusive: 50.1 µM [activator, single point]
COc1cc(C)ccc1OCc1cc(C(=O)N2CCN(C)C[C@@H]2c2ccccc2)no1 | – | inconclusive: 39.8 µM [activator, partial curve, poor fit]
Cc1ccc2ccccc2[n+]1CCCCI | inactive: -3.11% | –
O=[N+]([O-])c1cc(/C=N/N/C(=N/c2ccccn2)c2ccccn2)ccc1O | inactive: 4.76% | –
COc1cc(SC)ccc1C(=O)OCC(=O)NC1CC1 | – | inconclusive: 10 µM [activator, full curve, poor fit]
O=C(Nc1ccc(Cl)cc1)Nc1nc(-c2ccccc2)cs1 | inactive: -0.889% | –
COc1cc(/C=C(\C#N)C(=O)NC2CCCCC2C)ccc1OS(=O)(=O)c1ccc(C)cc1 (stereo unspecified) | – | inconclusive: 28.2 µM [activator, single point]
O=C(Nc1cccc(NC(=O)c2cc([N+](=O)[O-])ccc2Cl)n1)c1cc([N+](=O)[O-])ccc1Cl | – | inconclusive: 11.2 µM [activator, full curve, poor fit]
COc1cccc(C(=O)NC(=S)Nc2ccc(N3CCCC3)cc2)c1 | inactive: 3.66% | –
Fc1ccc(-n2nnc(-c3nccs3)n2)cc1 | inactive: -7.04% | –
CCOc1ccc(-c2nc(SCC(=O)Nc3ccc(C)c(C)c3)n3[nH]c(=O)cc3n2)cc1 | inactive: -0.679% | –
N#Cc1ccc(Nc2nc(-c3ccccc3)cs2)cc1 | inactive: 1.86% | –
CCN(CC)C1=NS(=O)(=O)c2cc([N+](=O)[O-])ccc21 | inactive: -4.06% | –
O=C(NN=C1CCCCCC1)NC1CCCCC1 | inactive: -4.27% | –
Nc1cccc2nc3ccccc3cc12 | – | inconclusive: 28.2 µM [activator, single point]
O=C/C=C/c1c(-c2ccccc2)cc2oc3ccccc3cc1-2 | – | inconclusive: 10 µM [activator, single point]
COc1ccc(CNC(=O)c2c(C)oc3c2C(=O)c2ccccc2C3=O)cc1 | – | inconclusive: 10 µM [activator, partial curve, poor fit]
